Experimental data reported in PMC4336329 (PLoS ONE, 2015).
Hit rate of the full screen: of about 310,000 compounds, about 2,200 (0.71%) showed an effect of 50% or more. Effects have a minus sign here. The list shows a part of the results.

The molecules below were run against human ether-à-go-go-related gene (hERG) potassium channel (human, UniProt Q12809) (assay: primary screen, population patch clamp on CHO cells stably expressing hERG).
human ether-à-go-go-related gene (hERG) potassium channel, sequence (Q12809 whole entry, looked up): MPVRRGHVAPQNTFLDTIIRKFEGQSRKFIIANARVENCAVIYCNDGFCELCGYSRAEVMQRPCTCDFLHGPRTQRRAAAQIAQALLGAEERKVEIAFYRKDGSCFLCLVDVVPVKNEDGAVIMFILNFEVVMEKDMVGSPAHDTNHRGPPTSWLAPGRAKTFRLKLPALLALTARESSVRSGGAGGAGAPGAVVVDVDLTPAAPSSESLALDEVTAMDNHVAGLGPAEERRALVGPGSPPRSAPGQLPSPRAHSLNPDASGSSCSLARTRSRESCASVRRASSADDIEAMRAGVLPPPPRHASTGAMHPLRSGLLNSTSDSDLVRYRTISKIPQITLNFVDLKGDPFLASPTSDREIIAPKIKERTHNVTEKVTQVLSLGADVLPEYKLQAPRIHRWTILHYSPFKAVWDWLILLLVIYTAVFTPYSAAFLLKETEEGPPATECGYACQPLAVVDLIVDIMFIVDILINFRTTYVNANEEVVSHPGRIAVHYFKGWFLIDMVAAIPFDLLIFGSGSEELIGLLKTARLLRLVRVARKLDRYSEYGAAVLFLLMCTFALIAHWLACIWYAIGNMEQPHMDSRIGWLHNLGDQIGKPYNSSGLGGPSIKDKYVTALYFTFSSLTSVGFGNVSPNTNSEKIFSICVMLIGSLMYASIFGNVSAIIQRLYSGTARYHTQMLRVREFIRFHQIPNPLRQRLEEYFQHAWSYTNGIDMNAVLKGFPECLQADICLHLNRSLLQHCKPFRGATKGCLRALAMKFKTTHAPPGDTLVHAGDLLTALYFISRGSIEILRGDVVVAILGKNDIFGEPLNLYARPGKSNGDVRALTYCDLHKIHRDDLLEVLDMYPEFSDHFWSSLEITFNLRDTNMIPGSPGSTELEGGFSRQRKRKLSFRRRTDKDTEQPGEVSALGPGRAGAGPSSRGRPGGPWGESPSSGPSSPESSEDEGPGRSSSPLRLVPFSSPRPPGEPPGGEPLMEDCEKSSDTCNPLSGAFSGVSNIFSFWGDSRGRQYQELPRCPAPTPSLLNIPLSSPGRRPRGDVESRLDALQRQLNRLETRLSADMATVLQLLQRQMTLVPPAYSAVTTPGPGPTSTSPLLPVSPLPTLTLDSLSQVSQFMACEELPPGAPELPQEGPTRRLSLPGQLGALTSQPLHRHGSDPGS

Compared with COC(=O)c1ccccc1NC(=O)CSc1nnnn1C1CCCCC1, NC(=O)c1nn(-c2ccccc2)nc1NC(=O)CN1CCCCC1 is higher in “hERG current change (%, negative = inhibition) at 1uM” value: 2.4% for the first, 8.45% for the second.

First: COc1ccc(-n2c(C)csc2=S)cc1
Second: COc1ccc(Cc2n[nH]c(=S)n2NC(=O)Nc2ccc(C)cc2)cc1
The “hERG current change (%, negative = inhibition) at 1uM” value of the first is higher: 12.3% for the first, -2.1% for the second.

Going from CC(=O)COc1cc2c(-c3cc4ccccc4o3)cc(=O)oc2cc1C to CCCN(Cc1cc2ccc(C)cc2[nH]c1=O)C(=O)c1ccccn1, the “hERG current change (%, negative = inhibition) at 1uM” value falls from 8.42% to 3.51%.

Going from Cc1ccn2c(=O)c(C(=O)O)cnc2c1 to Cc1nn(Cc2ccccc2)c(C)c1C(=O)O, the “hERG current change (%, negative = inhibition) at 1uM” value falls from 14.4% to -7.39%.

Compared with O=c1[nH]ncc(NCc2ccc(Cl)cc2)c1Cl, O=S(=O)(Nc1ccc(Cl)cc1)c1ccc2c(c1)CCO2 is higher in “hERG current change (%, negative = inhibition) at 1uM” value: 6.71% for the first, 7.39% for the second.

Going from CCOc1ccc(NC(=O)COc2ccc(C(=O)NCCc3ccccc3)cc2)cc1 to COc1cccc(NC(=O)CN(C)C(=O)c2ccc(OCc3ccccc3)c(OC)c2)c1, the “hERG current change (%, negative = inhibition) at 1uM” value rises from 3.64% to 6.57%.

First: Cn1nccc1NS(=O)(=O)c1ccc(NC(=O)C(F)(F)F)cc1
Second: O=C(O)Cc1ccc2c(c1)N(S(=O)(=O)c1cccc(C(F)(F)F)c1)CC(C(=O)O)O2 (centres unmarked)
The “hERG current change (%, negative = inhibition) at 1uM” value of the first is lower: 12.3% for the first, 14.5% for the second.

First: COc1ccc(S(=O)(=O)N[C@@H](CC(C)C)C(=O)O)cc1
Second: COc1ccc(S(=O)(=O)N(C)CC(=O)O)c2ccccc12
The “hERG current change (%, negative = inhibition) at 1uM” value of the first is higher: 14.5% for the first, 12.3% for the second.

Compared with CCOCCCn1cnc2c3cc(F)ccc3n(C)c2c1=O, Cc1cc(C)n(-c2nnc3c4ccccc4n(C)c3n2)n1 is higher in “hERG current change (%, negative = inhibition) at 1uM” value: -7.93% for the first, 10.2% for the second.

Going from CS(=O)(=O)N1CCN(C(=O)c2ccc(Br)s2)CC1 to Br.Cn1c(=N)n(CC(=O)c2ccc(Br)s2)c2ccccc21, the “hERG current change (%, negative = inhibition) at 1uM” value rises from -11% to 1.35%.

First: CCCn1nc(C(=O)NCc2ccc3c(c2)OCO3)c2ccccc2c1=O
Second: CN(CCOc1ccccc1)C(=O)c1ccc2c(c1)OCO2
The “hERG current change (%, negative = inhibition) at 1uM” value of the first is higher: 11.8% for the first, -0.138% for the second.

First: O=C(CSc1ccc(-c2ccccn2)nn1)Nc1ccccc1
Second: Cc1c(NC(=O)OCc2ccccc2)c(=O)n(-c2ccccc2)n1C
The “hERG current change (%, negative = inhibition) at 1uM” value of the first is higher: 14.7% for the first, 12.2% for the second.

Compared with CCN(CC)CCn1c2c(c(SCC(=O)Nc3ccc4c(c3)OCCO4)nc1=O)CCCC2, COCCn1c(SCC(=O)Nc2ccc(N3CCOCC3)cc2)nc2ccccc21 is higher in “hERG current change (%, negative = inhibition) at 1uM” value: -3.81% for the first, 6.27% for the second.

Compared with CC(=O)c1cccc(NC(=O)c2ccc(-c3ccccc3[N+](=O)[O-])o2)c1, Cc1cc(C)cc(NC(=O)Nc2ccc(NC(=O)c3ccccc3O)cc2)c1 is higher in “hERG current change (%, negative = inhibition) at 1uM” value: 4.61% for the first, 9.18% for the second.

Going from O=C(O)c1ccc2c(c1)OCCCO2 to O=C(O)c1ccc(O)c(O)c1, the “hERG current change (%, negative = inhibition) at 1uM” value rises from 10.6% to 13.7%.

First: COCCOc1ccc(C(F)(F)F)cc1NC(=O)COC(=O)c1cc([N+](=O)[O-])ccc1N1CCOCC1
Second: CCc1ccc(C(=O)COC(=O)C2CCN(c3ccc(C(F)(F)F)cn3)CC2)cc1
The “hERG current change (%, negative = inhibition) at 1uM” value of the first is lower: 4.19% for the first, 5.13% for the second.

Compared with COc1cccc(-c2nc3c(c(=O)[nH]c(=O)n3Cc3ccccc3)n2CCO)c1OC(F)F, O=c1[nH]c(=O)n(Cc2ccccc2)c(O)c1/C=N/NCCO is lower in “hERG current change (%, negative = inhibition) at 1uM” value: 12.8% for the first, 11.4% for the second.

Going from CC(C)C1Nc2ccc(C(=O)N3CCN(c4ccccn4)CC3)cc2NC1=O (centres unmarked) to O=C(CCN1CCN(c2ccccc2)CC1)Nc1ccccc1F, the “hERG current change (%, negative = inhibition) at 1uM” value rises from 11.4% to 14.5%.

Compared with COc1ccc([C@@H]2[C@@H]3C(=O)N(C(C)(C)C)C(=O)[C@@H]3[C@]3(CC(C)C)C(=O)N(c4ccc(C(F)(F)F)cc4)C(=O)N23)cc1, CC(C)(C)n1nnnc1C(c1ccc(C(F)(F)F)cc1)N(Cc1ccccc1)Cc1ccco1 (centres unmarked) is higher in “hERG current change (%, negative = inhibition) at 1uM” value: 11.8% for the first, 12.6% for the second.

First: O=C(Cn1cc([N+](=O)[O-])cn1)Nc1nc2ccccc2s1
Second: COC(=O)c1cc2nc(-c3ccccc3)cc(C(F)(F)F)n2n1
The “hERG current change (%, negative = inhibition) at 1uM” value of the first is lower: -41% for the first, 22.2% for the second.

First: CCc1ccc(N2CC(C(=O)N/N=C/c3ccccc3OC)CC2=O)cc1 (centres unmarked)
Second: COc1ccc(C(=O)NCCSCc2ccc(C)cc2)cc1
The “hERG current change (%, negative = inhibition) at 1uM” value of the first is higher: 13% for the first, 8.09% for the second.

Compared with CCC(=O)N(Cc1cc2ccccc2[nH]c1=O)C(C)C, CN(Cc1cccs1)C(=O)CCCc1c[nH]c2ccccc12 is lower in “hERG current change (%, negative = inhibition) at 1uM” value: 11.7% for the first, 4.34% for the second.

First: O=S(=O)(c1ccc(N2CCC(c3ccc(Cl)cc3)=N2)cc1)N(CCO)CCO
Second: CC(C)(C)c1ccc(S(=O)(=O)N2CCC(O)(c3ccc(Cl)cc3)CC2)cc1
The “hERG current change (%, negative = inhibition) at 1uM” value of the first is lower: -12.7% for the first, 2.78% for the second.

Compared with C/C(NCC(C)(C)CN(C)C)=C(/C#N)C(=O)NCc1ccccc1, CC(C)(C)NC(=O)CSc1nnc(C2CC2)n1Cc1ccccc1 is higher in “hERG current change (%, negative = inhibition) at 1uM” value: 0.126% for the first, 10.2% for the second.

First: O=C(O)c1ccc(S(=O)(=O)c2ccc3c(c2)C(=O)N(NC(=O)c2cccnc2)C3=O)cc1
Second: CCOc1ccc(S(=O)(=O)N2CCC(C(=O)NCc3cccnc3)CC2)cc1
The “hERG current change (%, negative = inhibition) at 1uM” value of the first is higher: 1.42% for the first, -3.84% for the second.

Compared with CC[N+]1(CC)CC2=Cc3c(ccc4ccccc34)C(C)C2C1.[Br-] (centres unmarked), CCC/C(O)=C1\C(=O)CC(C)(C)CC1=NCc1ccccc1 is lower in “hERG current change (%, negative = inhibition) at 1uM” value: 9.72% for the first, 2.91% for the second.

Compared with CC(=O)c1cccc(NC(=S)NC(=O)C(C)C)c1, COC(=O)NNC(=O)C(C)Oc1ccc(Cl)cc1Cl (centres unmarked) is lower in “hERG current change (%, negative = inhibition) at 1uM” value: 12.3% for the first, -15.3% for the second.

Going from COC(=O)CC1C(=O)NCCN1C(=O)CSc1nc2ccccc2o1 (centres unmarked) to O=C(CSc1ncnc2c1oc1ccccc12)N1CCCc2ccccc21, the “hERG current change (%, negative = inhibition) at 1uM” value falls from 11.4% to -1.75%.

Compared with Clc1ccccc1-c1cc(COc2ccc3ccccc3c2)no1, O=c1oc2ccccc2c2c1ncn2-c1ccccc1 is lower in “hERG current change (%, negative = inhibition) at 1uM” value: 2.49% for the first, -0.898% for the second.

Going from COc1cc(CNn2c(C)n[nH]c2=S)cc(Br)c1OCc1ccc(F)cc1 to COCCn1c(SCC(=O)Nc2ccccc2OC)nnc1-c1ccco1, the “hERG current change (%, negative = inhibition) at 1uM” value falls from 10.3% to 9.5%.

Going from C=CCOC(=O)C1=C(C)NC(SCC(=O)N(CC)CC)=C(C#N)C1c1ccccc1 (centres unmarked) to CCOC(=O)C1=C(C)Nc2nc3ccccc3n2C1c1cccs1 (centres unmarked), the “hERG current change (%, negative = inhibition) at 1uM” value rises from -5.43% to 9.54%.

Going from Cc1cccc(NC(=O)/C(C#N)=C\c2cc(C)n(-c3ccc(C(=O)O)cc3)c2C)c1 to CCOC(=O)c1c(NC(=O)c2ccc(N3C(=O)C4C5C=CC(C5)C4C3=O)cc2)sc2c1CCCC2 (centres unmarked), the “hERG current change (%, negative = inhibition) at 1uM” value rises from 13.1% to 15.2%.

First: O=C(COC(=O)c1nc(Cl)ccc1Cl)c1ccc[nH]1
Second: C=CCNC(=O)c1cc(Cl)ccc1Cl
The “hERG current change (%, negative = inhibition) at 1uM” value of the first is higher: 12.3% for the first, 9.16% for the second.

Compared with CCOc1ccccc1NC(=S)NC1CC2CCC1C2 (centres unmarked), CCOc1ccc(NC(=S)N2CCC(C(O)(c3ccccc3)c3ccccc3)CC2)cc1 is lower in “hERG current change (%, negative = inhibition) at 1uM” value: 10.7% for the first, -0.891% for the second.

First: Cc1ccc(C)c(-n2cc(-c3ccc(Cl)cc3)nc2SCC(=O)NC2CCS(=O)(=O)C2)c1 (centres unmarked)
Second: Cc1ccc(Oc2ncc(-c3ccc(Cl)cc3)cn2)cc1
The “hERG current change (%, negative = inhibition) at 1uM” value of the first is lower: 10.3% for the first, 11.8% for the second.

Compared with CC1CCN(c2cc(N3CCOCC3)c(F)cc2[N+](=O)[O-])CC1, O=[N+]([O-])c1cc2c(cc1CN1CCN(c3ccccc3F)CC1)OCO2 is higher in “hERG current change (%, negative = inhibition) at 1uM” value: 12% for the first, 12.8% for the second.

Compared with Nc1nc2nc(-c3ccccc3)cc(C(F)(F)F)c2s1, FC(F)(F)c1ccc(-c2csc(-c3ccno3)n2)cc1 is higher in “hERG current change (%, negative = inhibition) at 1uM” value: 8.84% for the first, 11.9% for the second.

First: N#C/C(C(=O)N1CCCC1)=C1/N=C(N)c2ccccc21
Second: O=S(=O)(c1ccccc1)N1CN2CCN(C2)C1
The “hERG current change (%, negative = inhibition) at 1uM” value of the first is higher: 17.8% for the first, 1.04% for the second.

First: CCCCCCn1c(SCCN2CCOCC2)nc2c1c(=O)[nH]c(=O)n2C
Second: CCc1cc2c(=O)n(CCCOC)c(SCC(=O)Nc3oc(C)c4c(C)n[nH]c(=O)c34)nc2s1
The “hERG current change (%, negative = inhibition) at 1uM” value of the first is lower: -64.1% for the first, 4.66% for the second.

Compared with CCCC(C)C(=O)Nc1ccc(Cl)cc1Cl (centres unmarked), CC(C)c1nnc(NC(=O)CCC(=O)NCc2cccs2)s1 is lower in “hERG current change (%, negative = inhibition) at 1uM” value: 9.32% for the first, 8.72% for the second.

First: Cc1ccc2c(c1)/C(=N/O)CCS2
Second: COc1ccc2c3c(cccc13)C(=O)CC2
The “hERG current change (%, negative = inhibition) at 1uM” value of the first is lower: 7.81% for the first, 17.1% for the second.

Compared with O=S1(=O)CCN2C(c3ccco3)=CSC2=N1, O=C(NCc1csc(-c2cccs2)n1)C1CC1 is higher in “hERG current change (%, negative = inhibition) at 1uM” value: 6.12% for the first, 13.3% for the second.

First: Cn1cccc1C(=O)OCC(=O)NC(=O)NC1CCCCC1
Second: CCOC(=O)c1sc2c(c1C)C(c1cccs1)C1=C(CCCC1=O)N2 (centres unmarked)
The “hERG current change (%, negative = inhibition) at 1uM” value of the first is higher: 9.6% for the first, 6.25% for the second.

Compared with C=CC[n+]1c(C)csc1Nc1cccc(Br)c1.[Br-], C=CCNC(=O)/C(C#N)=C\c1cc(Cl)c(O)c(OCC)c1 is lower in “hERG current change (%, negative = inhibition) at 1uM” value: 13.5% for the first, 2.98% for the second.

First: Clc1ccc(-c2csc(=Nc3cccnc3)n2CCCn2ccnc2)cc1Cl
Second: C/C(Cn1nnc([N+](=O)[O-])n1)=N\NC(=O)c1ccc(O)cc1
The “hERG current change (%, negative = inhibition) at 1uM” value of the first is lower: -22.6% for the first, 12.5% for the second.

Going from Cc1cc(=O)[nH]c(S)c1C#N to Cc1onc(-c2ccccc2)c1C(=O)NC(=S)Nc1sc2c(c1C#N)CCC(C)C2 (centres unmarked), the “hERG current change (%, negative = inhibition) at 1uM” value rises from 6.3% to 12.8%.
